Experimental data published in the supplement of paper PMC12067230.
The data scatter; read single values as rough.
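Note: [psi-pin-] Saccharomyces cerevisiae expressing SupN fusions, induced by 100 µM Cu2SO4, selected 7 d at 30 °C without adenine and uracil, scored by deep sequencing of output versus input.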

Assay: amyloid nucleation score relative to library mode (yeast Sup35 reporter selection) (log enrichment difference); higher = more amyloid nucleation; sequences are the first 22 residues of the Bri2 peptide extended by up to 12 random residues
Conditions: random library (experiment): 1;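 active = nucleation score significantly above 0 at FDR 0.05; inactive = not significantly above 0 or absent from output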
In the case of EASNCFAIRHFENKFAVETLICWMVLPKVNSLWC, the amyloid nucleation score is reported as “inactive”. For EASNCFAIRHFENKFAVETLICWMVWA, the amyloid nucleation score was “inactive”. Sequence EASNCFAIRHFENKFAVETLICWMVWCSRDADS has an amyloid nucleation score of 4.28. With EASNCFAIRHFENKFAVETLICWMW the amyloid nucleation score was 5.97. EASNCFAIRHFENKFAVETLICWNCRR gave an amyloid nucleation score of 8.86. In the case of EASNCFAIRHFENKFAVETLICWNDY, the amyloid nucleation score is reported as 5.07. With EASNCFAIRHFENKFAVETLICWNFTPRTMETCG the amyloid nucleation score was “inactive”. Sequence EASNCFAIRHFENKFAVETLICWNGMLRSSKDSG has an amyloid nucleation score of 3.11. EASNCFAIRHFENKFAVETLICWNIG gave an amyloid nucleation score of 6.96. In the case of EASNCFAIRHFENKFAVETLICWNIGWFWCWYSR, the amyloid nucleation score is reported as “inactive”. For EASNCFAIRHFENKFAVETLICWNKRRRNHRFMG, the amyloid nucleation score was “inactive”. EASNCFAIRHFENKFAVETLICWNM gave an amyloid nucleation score of 5.75. In the case of EASNCFAIRHFENKFAVETLICWNMKVSQSSA, the amyloid nucleation score is reported as “inactive”. In the case of EASNCFAIRHFENKFAVETLICWNPAVGLKIHAP, the amyloid nucleation score is reported as “inactive”. Work on EASNCFAIRHFENKFAVETLICWNYVRDPQCIAW yielded an amyloid nucleation score of 3.5. In the case of EASNCFAIRHFENKFAVETLICWPAGSMGNSRLS, the amyloid nucleation score is reported as 3.11. EASNCFAIRHFENKFAVETLICWPETWCARSAIL showed an amyloid nucleation score of 4.11. EASNCFAIRHFENKFAVETLICWPGWKWPGPEEQ showed an amyloid nucleation score of 6.55. For EASNCFAIRHFENKFAVETLICWPLERSLPRLVG, the amyloid nucleation score was “inactive”. Work on EASNCFAIRHFENKFAVETLICWPSYQMQ yielded an amyloid nucleation score of 5.52. With EASNCFAIRHFENKFAVETLICWPTSPVRAGTNG the amyloid nucleation score was “inactive”. In the case of EASNCFAIRHFENKFAVETLICWPWLLSLMVGVD, the amyloid nucleation score is reported as “inactive”. In the case of EASNCFAIRHFENKFAVETLICWPYASNKATTGE, the amyloid nucleation score is reported as 5.08. In the case of EASNCFAIRHFENKFAVETLICWQLAEWSQCRTG, the amyloid nucleation score is reported as “inactive”. With EASNCFAIRHFENKFAVETLICWQLDATPPGTAG the amyloid nucleation score was “inactive”. For EASNCFAIRHFENKFAVETLICWQRVELLTASLW, the amyloid nucleation score was “inactive”. With EASNCFAIRHFENKFAVETLICWQSGVFLSWGPK the amyloid nucleation score was “inactive”. For EASNCFAIRHFENKFAVETLICWQYASRCSRW, the amyloid nucleation score was 3.63. In the case of EASNCFAIRHFENKFAVETLICWRAKRMGRSDGG, the amyloid nucleation score is reported as “inactive”. In the case of EASNCFAIRHFENKFAVETLICWRALFGRRGDRR, the amyloid nucleation score is reported as “inactive”. With EASNCFAIRHFENKFAVETLICWRAVCSM the amyloid nucleation score was “inactive”. With EASNCFAIRHFENKFAVETLICWRAVLR the amyloid nucleation score was “inactive”. For EASNCFAIRHFENKFAVETLICWRDIGSAFLVDW, the amyloid nucleation score was “inactive”. In the case of EASNCFAIRHFENKFAVETLICWRDTGRPAAGRE, the amyloid nucleation score is reported as 2.17. For EASNCFAIRHFENKFAVETLICWREWRQWHAPLL, the amyloid nucleation score was “inactive”. With EASNCFAIRHFENKFAVETLICWRGRETLMSLIS the amyloid nucleation score was “inactive”. With EASNCFAIRHFENKFAVETLICWRHG the amyloid nucleation score was “inactive”. In the case of EASNCFAIRHFENKFAVETLICWRLLL, the amyloid nucleation score is reported as “inactive”. With EASNCFAIRHFENKFAVETLICWRLLRR the amyloid nucleation score was “inactive”. For EASNCFAIRHFENKFAVETLICWRMGDMFESKTP, the amyloid nucleation score was “inactive”. For EASNCFAIRHFENKFAVETLICWRPTTMVCGCVS, the amyloid nucleation score was “inactive”. With EASNCFAIRHFENKFAVETLICWRRASNRWWALL the amyloid nucleation score was “inactive”. EASNCFAIRHFENKFAVETLICWRREVGT showed an amyloid nucleation score of -0.137. EASNCFAIRHFENKFAVETLICWRRSWCGVLQDW showed an amyloid nucleation score of -0.0846. For EASNCFAIRHFENKFAVETLICWRRVGGTACVER, the amyloid nucleation score was -0.418. For EASNCFAIRHFENKFAVETLICWRSVGRCTWAEQ, the amyloid nucleation score was “inactive”. Work on EASNCFAIRHFENKFAVETLICWRTDA yielded an amyloid nucleation score of 0.281. With EASNCFAIRHFENKFAVETLICWRWFPLYCVLPV the amyloid nucleation score was “inactive”. For EASNCFAIRHFENKFAVETLICWRYWHWRKAYRE, the amyloid nucleation score was “inactive”. For EASNCFAIRHFENKFAVETLICWSATGACRVLAG, the amyloid nucleation score was “inactive”. In the case of EASNCFAIRHFENKFAVETLICWSCRIRSGNLWW, the amyloid nucleation score is reported as “inactive”. For EASNCFAIRHFENKFAVETLICWSCWWRRRSGTG, the amyloid nucleation score was 6.12. For EASNCFAIRHFENKFAVETLICWSDWWITVRMVN, the amyloid nucleation score was “inactive”. EASNCFAIRHFENKFAVETLICWSEMIQVEGLAL gave an amyloid nucleation score of 3.43. In the case of EASNCFAIRHFENKFAVETLICWSFAAGVVRRQA, the amyloid nucleation score is reported as “inactive”. Work on EASNCFAIRHFENKFAVETLICWSFGTKGFTQQT yielded an amyloid nucleation score of 2.78. With EASNCFAIRHFENKFAVETLICWSFKCYLFRLGW the amyloid nucleation score was -0.227. For EASNCFAIRHFENKFAVETLICWSHC, the amyloid nucleation score was 3.52. EASNCFAIRHFENKFAVETLICWSILP showed an amyloid nucleation score of 7.3. With EASNCFAIRHFENKFAVETLICWSKDVRGDTDHG the amyloid nucleation score was “inactive”. With EASNCFAIRHFENKFAVETLICWSLFWC the amyloid nucleation score was “inactive”. With EASNCFAIRHFENKFAVETLICWSLVNAPCREL the amyloid nucleation score was 4.72. With EASNCFAIRHFENKFAVETLICWSLWRDGVMVCW the amyloid nucleation score was “inactive”.

Same assay, conditions: random library (experiment): 2
For EASNCFAIRHFENKFAVETLICWNC, the amyloid nucleation score was 8.03. For EASNCFAIRHFENKFAVETLICWNIDKIPLSSV, the amyloid nucleation score was “inactive”. For EASNCFAIRHFENKFAVETLICWNIVSSGLQRVG, the amyloid nucleation score was “inactive”. In the case of EASNCFAIRHFENKFAVETLICWNLQ, the amyloid nucleation score is reported as “inactive”. For EASNCFAIRHFENKFAVETLICWNMQRSNIESKR, the amyloid nucleation score was “inactive”. With EASNCFAIRHFENKFAVETLICWNMVLTCLDMH the amyloid nucleation score was “inactive”. For EASNCFAIRHFENKFAVETLICWNPVFTWMWCMM, the amyloid nucleation score was “inactive”. In the case of EASNCFAIRHFENKFAVETLICWNSDWRTLLARR, the amyloid nucleation score is reported as “inactive”. For EASNCFAIRHFENKFAVETLICWNSFSILVCVEV, the amyloid nucleation score was “inactive”. EASNCFAIRHFENKFAVETLICWNSSSFDLCAWS showed an amyloid nucleation score of 4.84. With EASNCFAIRHFENKFAVETLICWPDLPCYDWGWC the amyloid nucleation score was 6.07. In the case of EASNCFAIRHFENKFAVETLICWPMRFYYIYS, the amyloid nucleation score is reported as “inactive”. In the case of EASNCFAIRHFENKFAVETLICWQCVFSGWIGWF, the amyloid nucleation score is reported as “inactive”. Sequence EASNCFAIRHFENKFAVETLICWRDRAYNKSCWY has an amyloid nucleation score of 4.4. In the case of EASNCFAIRHFENKFAVETLICWREIFLSFTLWV, the amyloid nucleation score is reported as “inactive”. With EASNCFAIRHFENKFAVETLICWRESRQDRTGEE the amyloid nucleation score was “inactive”. In the case of EASNCFAIRHFENKFAVETLICWRFRQRNSKRVL, the amyloid nucleation score is reported as “inactive”. In the case of EASNCFAIRHFENKFAVETLICWRFTYLSCSCTR, the amyloid nucleation score is reported as 2.95. EASNCFAIRHFENKFAVETLICWRGEFVKLDDAF showed an amyloid nucleation score of 2.26. EASNCFAIRHFENKFAVETLICWRLLGVRFGAGT gave an amyloid nucleation score of -0.215. In the case of EASNCFAIRHFENKFAVETLICWRLVCSFLRSEL, the amyloid nucleation score is reported as “inactive”. In the case of EASNCFAIRHFENKFAVETLICWRSCPGGPWASW, the amyloid nucleation score is reported as 1.98. With EASNCFAIRHFENKFAVETLICWRSTFLFKFRKR the amyloid nucleation score was “inactive”. Sequence EASNCFAIRHFENKFAVETLICWSARRLRKLPG has an amyloid nucleation score of 0.625. For EASNCFAIRHFENKFAVETLICWSFSDRGKTFLC, the amyloid nucleation score was “inactive”. For EASNCFAIRHFENKFAVETLICWSGMSFAVYY, the amyloid nucleation score was “inactive”. Work on EASNCFAIRHFENKFAVETLICWSGP yielded an amyloid nucleation score of 2.44.

Same assay, conditions: random library (experiment): 3
For EASNCFAIRHFENKFAVETLICWMYVVTIRSLHA, the amyloid nucleation score was “inactive”. With EASNCFAIRHFENKFAVETLICWNGERLYSTSKL the amyloid nucleation score was “inactive”. For EASNCFAIRHFENKFAVETLICWNLICSFGGRVM, the amyloid nucleation score was 6.59. In the case of EASNCFAIRHFENKFAVETLICWNSESRSGRVA, the amyloid nucleation score is reported as “inactive”. With EASNCFAIRHFENKFAVETLICWNVFSVLPRAGG the amyloid nucleation score was “inactive”. For EASNCFAIRHFENKFAVETLICWNVLLRMDVECR, the amyloid nucleation score was “inactive”. With EASNCFAIRHFENKFAVETLICWNVNPRLFISLS the amyloid nucleation score was “inactive”. Work on EASNCFAIRHFENKFAVETLICWNVTSH yielded an amyloid nucleation score of 4.77. In the case of EASNCFAIRHFENKFAVETLICWPHVCRESTRTG, the amyloid nucleation score is reported as “inactive”. With EASNCFAIRHFENKFAVETLICWPIMRKVESITW the amyloid nucleation score was “inactive”. Sequence EASNCFAIRHFENKFAVETLICWPLAACKVARTM has an amyloid nucleation score of 5.97. With EASNCFAIRHFENKFAVETLICWPPATVPQHIQG the amyloid nucleation score was “inactive”. In the case of EASNCFAIRHFENKFAVETLICWPTYLWKAKVSV, the amyloid nucleation score is reported as “inactive”. EASNCFAIRHFENKFAVETLICWQGTDIAAIHWH gave an amyloid nucleation score of 1.77. EASNCFAIRHFENKFAVETLICWQTVETMFLPGE gave an amyloid nucleation score of 0.739. With EASNCFAIRHFENKFAVETLICWRARKSRAGGMW the amyloid nucleation score was “inactive”. With EASNCFAIRHFENKFAVETLICWRCSLQYNVTV the amyloid nucleation score was “inactive”. In the case of EASNCFAIRHFENKFAVETLICWRLK, the amyloid nucleation score is reported as “inactive”. For EASNCFAIRHFENKFAVETLICWRQWQRYRGPGA, the amyloid nucleation score was 4.37. In the case of EASNCFAIRHFENKFAVETLICWRRSVWWGQDEL, the amyloid nucleation score is reported as “inactive”. For EASNCFAIRHFENKFAVETLICWRSEWQLRWEPV, the amyloid nucleation score was 2.11. In the case of EASNCFAIRHFENKFAVETLICWRSGRCLLQSTR, the amyloid nucleation score is reported as “inactive”. With EASNCFAIRHFENKFAVETLICWSALCVVIGFRW the amyloid nucleation score was “inactive”. With EASNCFAIRHFENKFAVETLICWSEVYCGPLALW the amyloid nucleation score was “inactive”. In the case of EASNCFAIRHFENKFAVETLICWSHFAGVCMAWM, the amyloid nucleation score is reported as “inactive”. In the case of EASNCFAIRHFENKFAVETLICWSHKCALLHGKW, the amyloid nucleation score is reported as “inactive”. For EASNCFAIRHFENKFAVETLICWSIHFVADEKWV, the amyloid nucleation score was “inactive”. With EASNCFAIRHFENKFAVETLICWSKSFSTWYGLE the amyloid nucleation score was “inactive”. With EASNCFAIRHFENKFAVETLICWSMVIISEACPL the amyloid nucleation score was “inactive”.
